# Source: the supplement of paper PMC12217912
# Some of the results follow. Sequences were assembled here from the parent chain. Inactive controls read about 0.05.
# B1: TEV protease; numbered along this chain (parent)
# chain: MGESLFKGPRDYNPISSSICHLTNESDGHTTSLYGIGFGPFIITNKHLFRRNNGTLVVQSLHGVFKVKDTTTLQQHLVDGRDMIIIRMPKDFPPFPQKLKFREPQREERICLVTTNFQTKSMSSMVSDTSCTFPSGDGIFWKHWIQTKDGQCGSPLVSTRDGFIVGIHSASNFTNTNNYFTSVPKNFMELLTNQEAQQWVSGWRLNADSVLWGGHKVFMVKPEEPFQPVKEATQL
# Variants of: B1
# Experiment: raw area under fraction-flipped curve 0-4 h after induction (AUC4h, not background-subtracted), DNA-recorder readout of cleavage of the substrate (dimensionless); higher = more cleavage of the substrate by the protease variant
# Settings: temperature: 34 °C; time window: 0-4 h after rhamnose induction
# Protocol: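 In vivo DNA recorder in E. coli TOP10(DE3) ΔrhaA at 34 °C. Each TEVp single-site mutant (parent TEVp 0) is paired with a single-site variant of the 7-mer TEVs (canonical ENLYFQ|S). The substrate sits between flexible linkers in a Bxb1-sfGFP-TEVs-SsrA fusion, so cleavage stabilises Bxb1 and speeds flipping of a recombination array, read by NGS. The value is the raw area under the fraction-flipped curve over 0-4 h after rhamnose induction (AUC4h), with ≥20 reads per time point. It is not background-subtracted; inactive controls average about 0.047.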
# 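Note: Bxb1 expression induced with 0.2% (w/v) L-rhamnose at OD600 near 0.5, cultures sampled hourly, flipped fraction per protease–substrate barcode pair counted by paired-end Illumina sequencing.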
Variant,area with substrate ENLYFQA,area with substrate ENLYFQD,area with substrate ENLYFQK,area with substrate ENLYFQM,area with substrate ENLYFQN,area with substrate ENLYFQQ,area with substrate ENLYFQS,area with substrate ENLYFQT,area with substrate ENLYFQV,area with substrate ENLYFQW,area with substrate ENLYFQY,area with substrate ENLYFQC,area with substrate ENLYFQF,area with substrate ENLYFQG,area with substrate ENLYFQH,area with substrate ENLYFQP,area with substrate ENLYFQR,area with substrate ENLYFQI,area with substrate ENLYFQL,area with substrate ENLYFQE
Y34G,0.115,0.0651,0.0665,0.0725,0.0583,0.072,0.0933,0.0544,0.0622,0.0562,0.0668,,,,,,,,,
F38A,0.0731,,0.0538,0.063,,0.0749,0.0798,0.0622,0.0485,0.0626,0.0631,0.09,0.0525,0.0809,0.0686,0.0466,0.0498,,,
L22T,0.0667,0.0481,,0.0438,0.0548,0.054,0.0558,0.0488,0.0369,0.0486,0.0376,0.0669,,,0.0544,0.0584,0.0452,0.0375,0.0447,
Q194E,0.0717,,0.0615,0.0993,0.0883,,0.119,,0.0609,,,,0.0886,,0.101,,0.0689,0.0589,,
S17R,0.086,,0.0458,0.0755,0.0997,0.0753,0.111,0.0545,0.0823,0.07,0.0825,0.117,,,0.112,0.0531,0.0436,,0.0611,
G213D,0.0667,,0.0626,0.036,0.0536,,0.0732,0.0636,,,0.0851,0.0754,,,0.0815,0.0545,0.0637,0.0387,0.065,
S26T,0.137,,0.0063,,0.0532,,0.0916,0.0676,,0.0612,,0.0951,,0.0785,0.0863,,0.0643,0.0627,0.0638,
T44Y,0.04,0.043,0.0567,0.0403,0.0425,,0.0441,,,0.0437,0.0378,0.0451,0.0469,0.0368,0.0457,0.0416,0.0523,0.0475,0.0386,
F117G,0.0625,,0.0583,0.0917,0.0871,,0.0957,0.0581,0.0467,,,0.0842,0.0729,,,,,0.0588,,
N175M,0.0925,,0.0585,0.0455,0.0737,,0.0811,0.0559,,0.0662,0.0555,0.136,,0.0768,0.0816,,0.0646,0.0659,0.0626,
K185I,0.108,,0.0704,0.172,0.0837,,0.107,,,0.079,0.0416,,,,0.0854,0.0759,0.0499,0.0593,0.063,
E107S,0.0911,,0.064,0.0844,0.0797,,0.101,0.0584,0.0833,0.0545,0.0771,0.122,,0.078,0.0876,,0.0622,0.0598,0.0746,
Y179Q,0.0557,0.0556,0.0736,0.0492,0.068,,0.058,0.063,,0.0473,,0.0654,0.0608,0.0628,0.0697,,0.0658,,0.0535,
K185F,0.135,,,0.0907,0.12,,0.106,0.0563,0.074,0.0675,0.0927,0.101,,0.0753,,0.0899,0.0788,0.0667,0.0661,
Q118S,0.0947,0.0833,,0.0864,0.0914,0.0765,0.0926,0.059,0.0677,,,,,0.0716,0.0871,0.0531,0.0693,0.051,0.0724,
E25Q,0.0988,0.0724,,0.117,0.0607,,0.103,0.0737,0.0669,,0.0781,0.118,0.0819,0.0998,0.0915,0.0752,0.0682,0.0554,0.0567,
W203C,0.0504,0.0569,0.062,0.0623,0.0447,0.0601,0.0653,0.0293,0.0597,,0.0571,0.0668,,,0.0427,,0.0651,0.0531,0.0527,0.0574
I139M,0.112,,0.0654,0.0811,0.0945,0.0538,0.116,0.078,0.0527,,0.0768,0.105,,0.102,0.0782,0.0505,0.0491,0.0591,0.0652,
D69R,0.0867,,,0.0559,0.0738,,0.0837,0.0546,,0.0747,,0.108,,0.0754,,0.0483,0.0559,,0.0662,0.0658
I42N,0.0358,,0.0449,0.0393,0.0324,,0.0428,0.0437,0.0272,0.0469,,0.047,,,0.0609,0.0481,0.0316,0.036,0.0468,
Q105A,0.0993,,0.0613,0.0834,0.0751,,0.102,0.0653,0.0656,0.0789,0.0799,0.134,0.0735,0.0918,,,0.0639,0.0538,0.0596,0.0731
Y34I,0.0417,,,0.0765,0.0745,0.0493,0.0853,0.0438,,,,0.108,0.0437,,0.0645,,0.0486,0.0601,0.0458,
K230W,0.0778,0.0618,,0.103,0.0831,0.0857,0.0989,0.0663,,0.0616,0.0619,0.114,,0.0885,0.0579,0.0405,0.0591,,0.0589,
S17L,0.0994,,0.0655,0.0851,0.0657,,0.104,0.0544,0.0625,0.0517,0.0753,0.119,,0.0901,0.0867,0.0614,0.0691,,0.0692,
L61D,0.0887,0.0622,,,0.0682,0.0761,0.102,0.0692,0.0803,0.0654,0.0777,0.0945,,,0.08,,0.0622,0.0622,0.0578,
